Reference: PubChem BioAssay AID463173 (ICCB-Longwood Screening Facility, Harvard Medical School, 2010)
Screen size: about 52,000 compounds; about 1,700 (3.3%) were called active. Cut-off read from the data, not from the text of the source: active = survival mostly below about 52% (no sharp cut-off); inactive = mostly above about 56%. The list shows a part of the results.

These compounds were tested on Wild type (assay: growth inhibition of S. aureus wild type versus tarO mutant, primary screen, teichoic acid synthesis inhibitors, RN4220, OD600 (AID 463173)). Details: S. aureus RN4220 wild type/DeltatarO growth, OD600, 18 h, hits give low values, screened at 18.75 µg/mL (by protocol).

Compound	survival
COc1ccccc1NC(=O)CCN1CCC(C(N)=O)CC1	inactive: 153%
CCOC(=O)N1CCc2c(sc3c2c(=O)n(Cc2ccccc2)c(=O)n3CC(=O)Nc2c(C)cccc2C)C1	inactive: 121%
CCOCN(C(=O)Cn1c(C(C)O)nc2ccccc21)c1c(C)cccc1CC (configuration not stated)	inactive: 117%
Cc1ccc(C(=O)Nc2ccc(-n3c(C)nc4ccccc4c3=O)cc2)cc1[N+](=O)[O-]	inactive: 121%
CCN(CC)CC(=O)c1c[nH]c2ccccc12	inactive: 108%
COc1ccc(CCNC(=O)Cc2c(C)c3cc(OC)c(OC)cc3oc2=O)cc1	inactive: 87%
Cc1cccc(C)c1OCC(=O)Nc1nonc1-c1ccc(Br)cc1	inactive: 35%
CCOc1ccc2oc(=O)cc(CN3CCN(c4ccc(OC)cc4)CC3)c2c1	inactive: 75%
CCN(C(=O)c1cc2c(s1)-c1c(C)cccc1OC2)c1cc(C)ccc1C	active: 11%
CCN(C(=O)CCS(=O)(=O)c1cccc2nsnc12)c1cccc(C)c1	inactive: 88%
O=C(Nc1nc2n(n1)C(c1ccc(F)cc1)C=C(c1ccc(Cl)cc1)N2)c1ccco1 (configuration not stated)	inactive: 28%
CCOC(=O)c1ccc(N2C(=O)c3n[nH]c(-c4cccs4)c3C2c2ccc(O)c(OC)c2)cc1 (configuration not stated)	inactive: 93%
O=C(NCC12CC3CC(CC(C3)C1)C2)c1cc2nc(-c3ccc(Cl)cc3)cc(C(F)(F)F)n2n1	inactive: 60%
Cc1cc(S(=O)(=O)Nc2cc3c(cc2N2CCOCC2)n(C)c(=O)n3C)ccc1F	inactive: 82%
CCc1nc2ccc(C(=O)NCCc3ccc(SC)cc3)cc2nc1CC	inactive: 81%
COC(=O)c1c(SCC(=O)Nc2cccc(C(F)(F)F)c2)[nH]c2ccccc2c1=O	inactive: 84%
COc1ccc(NC(=O)C(CC(C)C)NC(=O)C2CCCCC2)c(OC)c1 (configuration not stated)	inactive: 63%
CC(C)NC(=O)Cn1ncn2c(cc3cc(F)ccc32)c1=O	inactive: 83%
Clc1cccc(-c2nnc(CN3CCN(c4ccccn4)CC3)o2)c1	inactive: 82%

Compound	survival
COCCNc1c(-c2ccc(N)cc2)nc2ccc(C)cn12	inactive: 101%
COc1ccc(-n2c(=O)c3ccccc3n(Cc3ccc(F)cc3Cl)c2=O)cc1OC	inactive: 96%
CCc1ccccc1N1CC(c2nnc(NC(=O)c3ccco3)s2)CC1=O (configuration not stated)	inactive: 82%
CCN(CC)S(=O)(=O)c1ccc2c(c1)N(CC(=O)N1CCN(c3cc(Cl)ccc3C)CC1)C(=O)CO2	inactive: 78%
CC(=O)OCc1cnc(C)c2oc(=O)c(C(=O)Nc3ccc(F)cc3C)cc12	inactive: 124%
Cc1cccc(N2CCN(c3nc4ccccc4c4nc(-c5ccccc5)nn34)CC2)c1C	inactive: 87%
COc1ccc(NC(=O)C2CCN(C(=O)c3sc4nc[nH]c(=O)c4c3C)CC2)c(OC)c1	inactive: 81%
Nc1nc(-c2ccco2)nn1C(=O)c1ccc(Cl)cc1Cl	inactive: 97%
COc1ccc(C2CC(=O)c3cc(-c4nc(-c5ccc(Cl)cc5)cs4)c(=O)[nH]c3C2)cc1 (configuration not stated)	inactive: 138%
COc1cc(NC(=O)c2cc(-c3ccccc3O)no2)cc(OC)c1OC	inactive: 73%
CC(=O)Nc1nonc1-c1nnc(SCC(=O)Nc2ccccc2Cl)n1C	inactive: 83%
CCOc1ccc(CNC(=O)C2CCN(C3=NS(=O)(=O)C(c4ccc(C)cc4)=C3CC)CC2)cc1	inactive: 89%
COc1ccc(-c2cc3nc(C)c(CCC(=O)Nc4cccc(C(F)(F)F)c4)c(C)n3n2)c(OC)c1	inactive: 75%
COC(=O)C(Cc1c[nH]c2ccccc12)NC(C)=O (configuration not stated)	inactive: 107%
CCn1cc2nc(SCC(=O)Nc3ccccc3F)n(Cc3ccc(C)cc3)c(=O)c2n1	inactive: 95%
CCc1ccc(-c2nc(CN3CCCC(C(=O)NCc4ccc(C)cc4)C3)c(C)o2)cc1 (configuration not stated)	inactive: 88%
Cc1ccnc(NC(=O)c2c(C)oc3ncn(CC(C)C)c(=O)c23)c1	inactive: 69%
Cc1ccc(CNC(=O)Nc2cn(CC(C)C)c(=O)c3ccccc23)cc1	inactive: 72%
Cc1cc(C)c(NC(=O)CN2c3ccccc3S(=O)(=O)c3ccccc32)c(C)c1	inactive: 124%

Compound	survival
O=C(NCCCN1CCN(c2ccccc2F)CC1)c1cc2c(Cl)nc3ccccc3c2s1	inactive: 82%
CN(C(=O)Cn1cc(S(=O)(=O)N2CCN(c3ccccc3F)CC2)c2ccccc2c1=O)c1ccc(Cl)cc1	inactive: 71%
COCC(C)NC(=O)c1cnn2c(C(F)F)cc(-c3ccccc3)nc12 (configuration not stated)	inactive: 74%
CC(=O)c1ccc(NC(=O)c2cc(-c3ccc4c(c3)OCO4)on2)cc1	inactive: 75%
CCCCCOc1ccc(NC(=O)Cc2csc(C)n2)cc1	inactive: 89%
Cc1ccc(C(=O)Nc2ccccc2C(=O)O)cc1S(=O)(=O)N1CCCCCC1	inactive: 105%
Cc1nnc(SCc2ccccc2Cl)c2cc3sccc3n12	inactive: 86%
O=C(Nc1sc2c(c1C(=O)Nc1ccc(Cl)cc1)CCCC2)c1cccs1	inactive: 130%
CN1CCN(CCCNC(=O)Cn2c(-c3cccs3)cc3cc(Cl)ccc32)CC1	inactive: 78%
Cc1ccc(CN2COc3cc(C)c4c(oc(=O)c5ccccc54)c3C2)cc1	inactive: 85%
COc1cc(OC)c(NC(=O)C(NS(=O)(=O)c2cccc3nsnc23)c2ccccc2)cc1Cl (configuration not stated)	inactive: 45%
CCOc1ccc(NC(=O)c2cnn(-c3ccc(C)c(Cl)c3)c2C2CCNCC2)cc1	inactive: 82%
Cc1ccc2[nH]c(C(=O)Nc3ccccc3)cc2c1	inactive: 91%
COc1ccc(-c2[nH]c(-c3ccccc3)nc2SCC(=O)Nc2ccc3c(c2)OCCO3)cc1	inactive: 69%
CCOc1cc(C2NC(=O)c3c(sc4c3CCN(C)C4)N2)ccc1OC(=O)c1ccccc1Cl (configuration not stated)	inactive: 125%
Cc1ccc(S(=O)(=O)CCC(=O)Nc2ccc(Br)cc2C)cc1	inactive: 94%
CCOC(=O)c1cnc2c(ccc3ccccc32)c1Nc1ccccc1OC	inactive: 69%
CCOC(=O)c1cnc2ccccc2c1NCC(C)O (configuration not stated)	inactive: 93%
CCOC(=O)c1cc(-c2ccccc2)n(CC(=O)NC2CCC(C)CC2)c1C (configuration not stated)	inactive: 81%
